# Results: the supplement of paper PMC8728848
# This is one part of the list.
# B1: PX9937F-bfa-516-16-516 (Bacteroides fragilis) (protein)
# chain: LDIDPTSSIADSNYWKTEAQFSTFNVGLHALLRECSFNFFLLGEPRADIYGDVPFGGEATQGMERLPFNTINKENTGISNFAGMYKVINQINLMIAKTKETTVLSEAGKNYYLGEAYGMRAYLYFHLLRSWGDVILYLDYTNGASLDLSNLSKAASPAEEVMKQIKEDITASEKGFGSDYSFKYGRYYWSMAATQMLKGEVYLWSGRQMGGGTADYTTAKTALQSIVSNANVSLQDDFSKVFAYNNKDNSEIIFSIRNAKDEYNMWDDRFRQNLVPQQAYMTSTYCNKEGVSFKDLPEGQLNGLIRLQIRYDLYNKAFRDGDTRKDASMTAVYQKQQDGTVKYIAPFCNKYQGVLLDGASQRSFLNDYPIYRYADCLLLLAEAKALLGEDPTAEINQVRERAYGKEFFEANKATLAYPNDKGDFYTDNKYMSGDEDPLEAILKERMREFMFEGKRWYDLRLLGADYVTKRTSAVATRLLWPINESVLTDNPALKQTPGYQN
# Experiments:
# Assay in all cases: glycan array binding signal (z-score within array); higher = stronger binding
# Conditions in all cases: glycan notation: IUPAC condensed, linker removed
# [1] = biological target: Fuc(a1-2)Gal
# Summary of the method: (§1)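 Columns mapping to the same glycan were averaged after glycan names were converted to IUPAC-condensed notation. The data come from 3228 arrays in the Consortium for Functional Glycomics database, limited to those with an available protein sequence. Binding is reported as a within-array Z-score averaged across arrays of one protein sequence and across linkers.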
# [2] = biological target: Fuc(a1-2)Gal(b1-3)GalNAc
# Summary of the method: as §1
# [3] = biological target: Fuc(a1-2)Gal(b1-3)GalNAc(a1-3)[Fuc(a1-2)]Gal(b1-4)Glc
# Summary of the method: as §1
# [4] = biological target: Fuc(a1-2)Gal(b1-3)GalNAc(a1-3)[Fuc(a1-2)]Gal(b1-4)GlcNAc
# Summary of the method: as §1
# [5] = biological target: Fuc(a1-2)Gal(b1-3)GalNAc(b1-3)Gal
# Summary of the method: as §1
# [6] = biological target: Fuc(a1-2)Gal(b1-3)GalNAc(b1-3)Gal(a1-4)Gal(b1-4)Glc
# Summary of the method: as §1
# [7] = biological target: Fuc(a1-2)Gal(b1-3)GalNAc(b1-4)[Neu5Ac(a2-3)]Gal(b1-4)Glc
# Summary of the method: as §1
# [8] = biological target: Fuc(a1-2)Gal(b1-3)GlcNAc
# Summary of the method: as §1
# [9] = biological target: Fuc(a1-2)Gal(b1-3)GlcNAc(b1-2)Man(a1-3)[Fuc(a1-2)Gal(b1-3)GlcNAc(b1-2)Man(a1-6)]Man(b1-4)GlcNAc(b1-4)GlcNAc
# Summary of the method: as §1
# [10] = biological target: Fuc(a1-2)Gal(b1-3)GlcNAc(b1-2)Man(a1-3)[Fuc(a1-2)Gal(b1-3)GlcNAc(b1-2)Man(a1-6)]Man(b1-4)GlcNAc(b1-4)[Fuc(a1-6)]GlcNAc
# Summary of the method: as §1
# [11] = biological target: Fuc(a1-2)Gal(b1-3)GlcNAc(b1-3)Gal(b1-4)Glc
# Summary of the method: as §1
# [12] = biological target: Fuc(a1-2)Gal(b1-3)GlcNAc(b1-3)GalNAc
# Summary of the method: as §1
# [13] = biological target: Fuc(a1-2)Gal(b1-3)GlcNAc(b1-3)[Fuc(a1-2)Gal(b1-3)GlcNAc(b1-6)]GalNAc
# Summary of the method: as §1
# [14] = biological target: Fuc(a1-2)Gal(b1-3)GlcNAc(b1-3)[Gal(b1-4)GlcNAc(b1-6)]Gal(b1-4)Glc
# Summary of the method: as §1
# [15] = biological target: Fuc(a1-2)Gal(b1-3)GlcNAc(b1-3)[Neu5Ac(a2-6)Gal(b1-4)GlcNAc(b1-6)]Gal(b1-4)Glc
# Summary of the method: as §1
# [16] = biological target: Fuc(a1-2)Gal(b1-3)GlcNAc6S
# Summary of the method: as §1
# [17] = biological target: Fuc(a1-2)Gal(b1-3)[Fuc(a1-4)]GlcNAc
# Summary of the method: as §1
# [18] = biological target: Fuc(a1-2)Gal(b1-3)[Fuc(a1-4)]GlcNAc(b1-2)Man(a1-3)[Fuc(a1-2)Gal(b1-3)[Fuc(a1-4)]GlcNAc(b1-2)Man(a1-3)]Man(b1-4)GlcNAc(b1-4)GlcNAc
# Summary of the method: as §1
# [19] = biological target: Fuc(a1-2)Gal(b1-3)[Fuc(a1-4)]GlcNAc(b1-2)Man(a1-3)[Fuc(a1-2)Gal(b1-3)[Fuc(a1-4)]GlcNAc(b1-2)Man(a1-6)]Man(b1-4)GlcNAc(b1-4)[Fuc(a1-6)]GlcNAc(b1-4)[Fuc(a1-6)]GlcNAc
# Summary of the method: as §1
# [20] = biological target: Fuc(a1-2)Gal(b1-3)[Fuc(a1-4)]GlcNAc(b1-3)[Fuc(a1-3)[Gal(b1-4)]GlcNAc(b1-6)]Gal(b1-4)Glc
# Summary of the method: as §1
# [21] = biological target: Fuc(a1-2)Gal(b1-3)[Fuc(a1-4)]GlcNAc(b1-3)[Gal(b1-4)GlcNAc(b1-6)]Gal(b1-4)Glc
# Summary of the method: as §1
# [22] = biological target: Fuc(a1-2)Gal(b1-4)Glc
# Summary of the method: as §1
# [23] = biological target: Fuc(a1-2)Gal(b1-4)Glc6S
# Summary of the method: as §1
# [24] = biological target: Fuc(a1-2)Gal(b1-4)GlcNAc
# Summary of the method: as §1
# [25] = biological target: Fuc(a1-2)Gal(b1-4)GlcNAc(b1-2)Man
# Summary of the method: as §1
# [26] = biological target: Fuc(a1-2)Gal(b1-4)GlcNAc(b1-2)Man(a1-3)[Fuc(a1-2)Gal(b1-4)GlcNAc(b1-2)Man(a1-6)]Man(b1-4)GlcNAc(b1-4)GlcNAc
# Summary of the method: as §1
# [27] = biological target: Fuc(a1-2)Gal(b1-4)GlcNAc(b1-2)Man(a1-3)[Fuc(a1-2)Gal(b1-4)GlcNAc(b1-2)Man(a1-6)]Man(b1-4)GlcNAc(b1-4)[Fuc(a1-6)]GlcNAc
# Summary of the method: as §1
# [28] = biological target: Fuc(a1-2)Gal(b1-4)GlcNAc(b1-2)[Fuc(a1-2)Gal(b1-4)GlcNAc(b1-4)]Man(a1-3)[Fuc(a1-2)Gal(b1-4)GlcNAc(b1-2)Man(a1-6)]Man(b1-4)GlcNAc(b1-4)GlcNAc
# Summary of the method: as §1
# [29] = biological target: Fuc(a1-2)Gal(b1-4)GlcNAc(b1-3)Gal(b1-4)GlcNAc
# Summary of the method: as §1
# [30] = biological target: Fuc(a1-2)Gal(b1-4)GlcNAc(b1-3)Gal(b1-4)GlcNAc(b1-2)Man(a1-3)[Fuc(a1-2)Gal(b1-4)GlcNAc(b1-3)Gal(b1-4)GlcNAc(b1-2)Man(a1-6)]Man(b1-4)GlcNAc(b1-4)GlcNAc
# Summary of the method: as §1
# [31] = biological target: Fuc(a1-2)Gal(b1-4)GlcNAc(b1-3)Gal(b1-4)GlcNAc(b1-3)Gal(b1-4)GlcNAc
# Summary of the method: as §1
# [32] = biological target: Fuc(a1-2)Gal(b1-4)GlcNAc(b1-3)GalNAc
# Summary of the method: as §1
# [33] = biological target: Fuc(a1-2)Gal(b1-4)GlcNAc(b1-3)[Fuc(a1-2)Gal(b1-4)GlcNAc(b1-6)]GalNAc
# Summary of the method: as §1
# [34] = biological target: Fuc(a1-2)Gal(b1-4)GlcNAc(b1-3)[Fuc(a1-3)[Gal(b1-4)]GlcNAc(b1-6)]Gal(b1-4)Glc
# Summary of the method: as §1
# [35] = biological target: Fuc(a1-2)Gal(b1-4)GlcNAc(b1-6)GalNAc
# Summary of the method: as §1
# [36] = biological target: Fuc(a1-2)Gal(b1-4)GlcNAc6S
# Summary of the method: as §1
# [37] = biological target: Fuc(a1-2)Gal(b1-4)[Fuc(a1-3)]GlcNAc
# Summary of the method: as §1
# [38] = biological target: Fuc(a1-2)Gal(b1-4)[Fuc(a1-3)]GlcNAc(b1-2)Man(a1-3)[Fuc(a1-2)Gal(b1-4)[Fuc(a1-3)]GlcNAc(b1-2)Man(a1-6)]Man(b1-4)GlcNAc(b1-4)[Fuc(a1-6)]GlcNAc
# Summary of the method: as §1
# [39] = biological target: Fuc(a1-2)Gal(b1-4)[Fuc(a1-3)]GlcNAc(b1-2)[Fuc(a1-2)Gal(b1-4)[Fuc(a1-3)]GlcNAc(b1-4)]Man(a1-3)[Fuc(a1-2)Gal(b1-4)[Fuc(a1-3)]GlcNAc(b1-2)Man(a1-6)]Man(b1-4)GlcNAc(b1-4)GlcNAc
# Summary of the method: as §1
# [40] = biological target: Fuc(a1-2)Gal(b1-4)[Fuc(a1-3)]GlcNAc(b1-3)Gal(b1-4)[Fuc(a1-3)]GlcNAc
# Summary of the method: as §1
# [41] = biological target: Fuc(a1-2)Gal(b1-4)[Fuc(a1-3)]GlcNAc(b1-3)Gal(b1-4)[Fuc(a1-3)]GlcNAc(b1-3)Gal(b1-4)[Fuc(a1-3)]GlcNAc
# Summary of the method: as §1
# [42] = biological target: Fuc(a1-2)Gal(b1-4)[Fuc(a1-3)]GlcNAc(b1-3)GalNAc
# Summary of the method: as §1
# [43] = biological target: Fuc(a1-2)Gal(b1-4)[Fuc(a1-3)]GlcNAc(b1-3)[Neu5Ac(a2-6)Gal(b1-4)GlcNAc(b1-6)]Gal(b1-4)Glc
# Summary of the method: as §1
# [44] = biological target: Fuc(a1-2)Gal3S(b1-4)GlcNAc
# Summary of the method: as §1
# [45] = biological target: Fuc(a1-2)Gal6S(b1-3)GlcNAc
# Summary of the method: as §1
binder,measurement,setting,value
B1,glycan array binding signal (z-score),[1],0.177
same,glycan array binding signal (z-score),[2],-0.221
same,glycan array binding signal (z-score),[3],-0.365
same,glycan array binding signal (z-score),[4],0.373
same,glycan array binding signal (z-score),[5],0.076
same,glycan array binding signal (z-score),[6],0.493
same,glycan array binding signal (z-score),[7],-0.287
same,glycan array binding signal (z-score),[8],-0.31
same,glycan array binding signal (z-score),[9],0.046
same,glycan array binding signal (z-score),[10],0.127
same,glycan array binding signal (z-score),[11],-0.272
same,glycan array binding signal (z-score),[12],-0.3
same,glycan array binding signal (z-score),[13],1.06
same,glycan array binding signal (z-score),[14],0.072
same,glycan array binding signal (z-score),[15],-0.097
same,glycan array binding signal (z-score),[16],-0.091
same,glycan array binding signal (z-score),[17],-0.318
same,glycan array binding signal (z-score),[18],0.059
same,glycan array binding signal (z-score),[19],-0.23
same,glycan array binding signal (z-score),[20],-0.103
same,glycan array binding signal (z-score),[21],-0.259
same,glycan array binding signal (z-score),[22],-0.109
same,glycan array binding signal (z-score),[23],0.18
same,glycan array binding signal (z-score),[24],-0.216
same,glycan array binding signal (z-score),[25],-0.08
same,glycan array binding signal (z-score),[26],-0.256
same,glycan array binding signal (z-score),[27],-0.139
same,glycan array binding signal (z-score),[28],0.264
same,glycan array binding signal (z-score),[29],-0.104
same,glycan array binding signal (z-score),[30],-0.159
same,glycan array binding signal (z-score),[31],-0.219
same,glycan array binding signal (z-score),[32],0.182
same,glycan array binding signal (z-score),[33],0.052
same,glycan array binding signal (z-score),[34],-0.251
same,glycan array binding signal (z-score),[35],-0.245
same,glycan array binding signal (z-score),[36],0.094
same,glycan array binding signal (z-score),[37],-0.211
same,glycan array binding signal (z-score),[38],-0.046
same,glycan array binding signal (z-score),[39],-0.08
same,glycan array binding signal (z-score),[40],-0.144
same,glycan array binding signal (z-score),[41],-0.145
same,glycan array binding signal (z-score),[42],0.061
same,glycan array binding signal (z-score),[43],-0.24
same,glycan array binding signal (z-score),[44],-0.168
same,glycan array binding signal (z-score),[45],-0.023
